Laboratory results as given in publication PMC5062614.
Results are given in words; binding and its absence hold for the method and conditions named. For part of these data: In cells and extracts the contact can be indirect. Some results given as binding are weak or reduced against the parent protein; the word gives no strength. Sequences can lack the tags named with a protein.

T1: NPR3 fused with the DNA binding domain (BD) (Arabidopsis) (UniProt Q8L746)
T1 sequence: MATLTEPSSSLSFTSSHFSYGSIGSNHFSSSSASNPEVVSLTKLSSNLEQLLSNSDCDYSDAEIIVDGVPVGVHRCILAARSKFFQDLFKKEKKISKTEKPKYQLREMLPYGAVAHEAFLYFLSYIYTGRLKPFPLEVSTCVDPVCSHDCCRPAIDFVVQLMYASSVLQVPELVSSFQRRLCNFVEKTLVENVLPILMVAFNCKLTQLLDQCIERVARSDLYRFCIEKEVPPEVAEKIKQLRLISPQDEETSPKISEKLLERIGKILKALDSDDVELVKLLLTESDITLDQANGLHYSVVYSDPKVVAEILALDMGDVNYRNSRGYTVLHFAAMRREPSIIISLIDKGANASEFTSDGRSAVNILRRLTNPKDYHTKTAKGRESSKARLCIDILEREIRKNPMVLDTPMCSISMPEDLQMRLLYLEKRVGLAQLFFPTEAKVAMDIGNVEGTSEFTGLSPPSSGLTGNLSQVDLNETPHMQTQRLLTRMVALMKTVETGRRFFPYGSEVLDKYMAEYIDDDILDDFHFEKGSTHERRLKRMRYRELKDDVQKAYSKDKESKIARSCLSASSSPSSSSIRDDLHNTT

T2: NPR4 fused with the DNA binding domain (BD) (Arabidopsis) (UniProt Q5ICL9)
T2 sequence: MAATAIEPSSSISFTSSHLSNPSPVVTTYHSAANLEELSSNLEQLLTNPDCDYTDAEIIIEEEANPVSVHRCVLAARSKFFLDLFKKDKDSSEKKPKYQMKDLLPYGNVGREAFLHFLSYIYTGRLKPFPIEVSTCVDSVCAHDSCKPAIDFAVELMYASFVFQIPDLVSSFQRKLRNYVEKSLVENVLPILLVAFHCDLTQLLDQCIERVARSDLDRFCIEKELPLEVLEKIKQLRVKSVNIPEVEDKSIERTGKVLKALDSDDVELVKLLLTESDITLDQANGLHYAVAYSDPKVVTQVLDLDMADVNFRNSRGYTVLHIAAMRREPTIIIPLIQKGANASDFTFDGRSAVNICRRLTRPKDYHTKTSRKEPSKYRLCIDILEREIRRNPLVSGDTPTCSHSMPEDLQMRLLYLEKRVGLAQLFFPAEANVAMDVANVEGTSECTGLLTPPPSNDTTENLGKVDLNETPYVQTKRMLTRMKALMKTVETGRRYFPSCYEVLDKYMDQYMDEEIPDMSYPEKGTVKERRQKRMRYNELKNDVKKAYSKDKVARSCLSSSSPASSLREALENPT

T3: NPR3-nLuc (Arabidopsis) (UniProt Q8L746)
T3 sequence: T1 sequence

T4: NPR4-nLuc (Arabidopsis) (UniProt Q5ICL9)
T4 sequence: T2 sequence

B1: JAZ9 fused with the transcriptional activation domain (AD) (protein, UniProt Q8W4J8 1-267)
chain: MERDFLGLSDKQYLSNNVKHEVNDDAVEERGLSTKAAREWGKSKVFATSSFMPSSDFQEAKAFPGAYQWGSVSAANVFRRCQFGGAFQNATPLLLGGSVPLPTHPSLVPRVASSGSSPQLTIFYGGTISVFNDISPDKAQAIMLCAGNGLKGETGDSKPVREAERMYGKQIHNTAATSSSSATHTDNFSRCRDTPVAATNAMSMIESFNAAPRNMIPSVPQARKASLARFLEKRKERLMSAMPYKKMLLDLSTGESSGMNYSSTSPT
B2: JAZ4 fused with the transcriptional activation domain (AD) (protein, UniProt Q58G47 1-310)
chain: MERDFLGLGSKLSPITVKEETNEDSAPSRGMMDWSFSSKVGSGPQFLSFGTSQQETRVNTVNDHLLSSAAMDQNQRTYFSSLQEDRVFPGSSQQDQTTITVSMSEPNYINSFINHQHLGGSPIMAPPVSVFPAPTTIRSSSKPLPPQLTIFYAGSVLVYQDIAPEKAQAIMLLAGNGPHAKPVSQPKPQKLVHHSLPTTDPPTMPPSFLPSISYIVSETRSSGSNGVTGLGPTKTKASLASTRNNQTAAFSMAPTVGLPQTRKASLARFLEKRKERVINVSPYYVDNKSSIDCRTLMSECVSCPPAHHLH
B3: JAZ11 fused with the transcriptional activation domain (AD) (protein, UniProt Q9M246 1-238)
chain: MAEVNGDFPVPSFADGTGSVSAGLDLLVERSIHEARSTEPDASTQLTIIFGGSCRVFNGVPAQKVQEIIRIAFAGKQTKNVTGINPALNRALSFSTVADLPIARRRSLQRFLEKRRDRSTKPDGSMILPSQLTIIFGGSFSVFDGIPAEKVQEILHIAAAAKATETINLTSINPALKRAISFSNASTVACVSTADVPIARRRSLQRFFEKRRHRFVHTKPYSATTSEADKNETSPIVT
B4: JAZ8 fused with the transcriptional activation domain (AD) (protein, UniProt Q8LBM2 1-131)
chain: MKLQQNCDLELRLFPTSYDSDSSDTTSVVESTSSGNPQPNEESQRITIFYNGKMCFSSDVTHLQARSIISIASREMKTKSSSNGSDPPNKSTSFHHNQLPNPKASMKKSLQSFLQKRKIRIQATSPYHSRR
B5: JAZ10 fused with the transcriptional activation domain (AD) (protein, UniProt Q93ZM9 1-197)
chain: MSKATIELDFLGLEKKQTNNAPKPKFQKFLDRRRSFRDIQGAISKIDPEIIKSLLASTGNNSDSSAKSRSVPSTPREDQPQIPISPVHASLARSSTELVSGTVPMTIFYNGSVSVFQVSRNKAGEIMKVANEAASKKDESSMETDLSVILPTTLRPKLFGQNLEGDLPIARRKSLQRFLEKRKERLVSTSPYYPTSA
B6: JAZ4 fused with the C-terminal half of luciferase (cLuc) (protein, UniProt Q58G47 1-310)
chain: B2 chain
B7: JAZ8 fused with the C-terminal half of luciferase (cLuc) (protein, UniProt Q8LBM2 1-131)
chain: B4 chain
B8: JAZ9 fused with the C-terminal half of luciferase (cLuc) (protein, UniProt Q8W4J8 1-267)
chain: B1 chain

What follows are binders tested against T1, NPR3 fused with the DNA binding domain (BD) (Arabidopsis) (assay: two-hybrid; AD-JAZ (pGADT7, AH109) mated with BD-NPR3 or its derivatives (pGBKT7, Y187); growth on SD-Leu-Trp-His-Ade plates without SA).

Binder | binding
B1 | binds
B2 | binds
B3 | no binding (condition: without SA in the yeast medium)
B4 | no binding (condition: without SA in the yeast medium)
B5 | no binding (condition: without SA in the yeast medium)

The binders below were run against T1, NPR3 fused with the DNA binding domain (BD) (Arabidopsis) (assay: two-hybrid; AD-JAZ (pGADT7, AH109) mated with BD-NPR3 or its derivatives (pGBKT7, Y187); growth on SD-Leu-Trp-His-Ade plates with 100 μM SA).

Binder | binding
B1 | binds
B2 | binds
B3 | binds
B4 | binds
B5 | binds

The binders below were run against T2, NPR4 fused with the DNA binding domain (BD) (Arabidopsis) (assay: two-hybrid; AD-JAZ (pGADT7) mated with BD-NPR4 (pGBKT7); SD-Leu-Trp-His-Ade plates without and with 100 μM SA; the text does not tell on which plates each result was seen).

Binder | binding
B2 | binds
B3 | binds

These binders were tested against T3, NPR3-nLuc (Arabidopsis) (assay: split reporter; split luciferase; cLuc-JAZ and NPR3-nLuc or NPR4-nLuc transiently co-expressed in N. benthamiana leaves for 2 days; 1 mM luciferin; images 0 and 3 h after 1 mM SA treatment).

Binder | binding
B6 | binds
B7 | binds
B8 | binds

These binders were tested against T4, NPR4-nLuc (Arabidopsis) in the same assay as above.

Binder | binding
B6 | binds
B7 | binds
B8 | binds
